# From the supplement of paper PMC12217912
# This is one part of the list. Sequences were assembled here from the parent chain. Inactive controls read about 0.05.
# B1: TEV protease; numbered along this chain (parent)
# chain: MGESLFKGPRDYNPISSSICHLTNESDGHTTSLYGIGFGPFIITNKHLFRRNNGTLVVQSLHGVFKVKDTTTLQQHLVDGRDMIIIRMPKDFPPFPQKLKFREPQREERICLVTTNFQTKSMSSMVSDTSCTFPSGDGIFWKHWIQTKDGQCGSPLVSTRDGFIVGIHSASNFTNTNNYFTSVPKNFMELLTNQEAQQWVSGWRLNADSVLWGGHKVFMVKPEEPFQPVKEATQL
# Variants of: B1
# Assay: raw area under fraction-flipped curve 0-4 h after induction (AUC4h, not background-subtracted), DNA-recorder readout of cleavage of the substrate (dimensionless); higher = more cleavage of the substrate by the protease variant
# Conditions: temperature: 34 °C; time window: 0-4 h after rhamnose induction
# Description: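 In vivo DNA recorder in E. coli TOP10(DE3) ΔrhaA at 34 °C. Each TEVp single-site mutant (parent TEVp 0) is paired with a single-site variant of the 7-mer TEVs (canonical ENLYFQ|S). The substrate sits between flexible linkers in a Bxb1-sfGFP-TEVs-SsrA fusion, so cleavage stabilises Bxb1 and speeds flipping of a recombination array, read by NGS. The value is the raw area under the fraction-flipped curve over 0-4 h after rhamnose induction (AUC4h), with ≥20 reads per time point. It is not background-subtracted; inactive controls average about 0.047.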
# 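Also: Bxb1 expression induced with 0.2% (w/v) L-rhamnose at OD600 near 0.5, cultures sampled hourly, flipped fraction per protease–substrate barcode pair counted by paired-end Illumina sequencing.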
Variant,area with substrate EALYFQS,area with substrate ECLYFQS,area with substrate EDLYFQS,area with substrate EHLYFQS,area with substrate ELLYFQS,area with substrate EMLYFQS,area with substrate EQLYFQS,area with substrate ESLYFQS,area with substrate EVLYFQS,area with substrate EWLYFQS,area with substrate EGLYFQS,area with substrate EILYFQS,area with substrate EKLYFQS,area with substrate EPLYFQS,area with substrate ERLYFQS,area with substrate ETLYFQS,area with substrate EYLYFQS,area with substrate EFLYFQS,area with substrate EELYFQS
F65C,0.14,0.11,0.133,0.0655,0.0804,0.0944,0.0969,0.122,0.137,0.0914,,,,,,,,,
F65K,0.131,0.104,,,,0.0773,0.141,0.0901,,0.0963,0.0561,0.104,0.129,0.126,0.0962,0.0994,,,
V67E,0.0807,0.0971,,,,,,,,,,0.0892,,,,,,,
D69V,0.114,0.0757,0.0704,0.0656,,0.0782,0.0773,0.0826,0.0702,0.0713,,0.0793,,,0.0707,,0.0767,,
T70C,0.0673,0.0697,,,,0.0771,0.0997,0.0893,0.0917,,,0.0731,,,0.0864,,,0.0606,
T72M,0.0993,,,0.0927,0.044,0.0969,0.135,0.0933,,,0.083,0.0907,,0.126,0.1,,,,
L73A,0.0648,0.0649,,0.0784,,0.0633,,0.0519,0.0694,0.0522,,,,,,,,0.0553,0.0768
Q75G,0.115,0.0966,,,,0.103,0.142,0.0918,,,0.074,,0.0854,,,,,,0.0977
Q75S,0.0803,0.0791,0.0976,0.0649,0.0755,0.0967,,0.0797,0.0681,0.0661,,0.0874,,0.0987,,,0.0759,,
Q75Y,0.0803,0.0693,0.0824,0.0787,,0.0746,0.0569,0.0747,0.0497,,0.056,0.0629,,0.0804,0.069,0.0669,0.0674,,0.065
D79C,0.122,,,,,,0.105,0.0737,,0.079,0.097,0.0896,0.0913,0.125,,,,,
D79R,0.0958,0.0114,0.0928,0.12,0.062,0.0643,,0.0827,0.0815,,0.0729,0.088,0.0349,0.0757,,0.0789,0.102,0.065,0.0968
D79Y,0.0934,0.0933,,0.133,0.0752,,,0.107,,0.0809,,0.0712,,,,,,,
R81Q,0.126,0.097,,0.0941,,,,,,,,,0.0665,0.0946,,,,,
D82C,0.095,,0.0606,,0.0738,0.0516,0.0439,0.0552,0.0547,,0.0575,,,0.0365,,,,,
D82S,0.0313,0.0467,,,,,0.0284,0.0568,0.0565,0.0349,,,,,,,0.0495,,0.0591
I84K,0.0427,0.0563,,,,0.058,0.0534,0.0603,0.0627,0.0524,0.0555,0.0566,,0.0512,0.0234,,0.0516,,0.0538

Variant,area with substrate EALYFQS,area with substrate ECLYFQS,area with substrate EDLYFQS,area with substrate EHLYFQS,area with substrate ELLYFQS,area with substrate EMLYFQS,area with substrate EQLYFQS,area with substrate ESLYFQS,area with substrate EVLYFQS,area with substrate EWLYFQS,area with substrate EGLYFQS,area with substrate EILYFQS,area with substrate EKLYFQS,area with substrate EPLYFQS,area with substrate ERLYFQS,area with substrate ETLYFQS,area with substrate EYLYFQS,area with substrate EFLYFQS,area with substrate EELYFQS
I84L,0.0866,0.079,,0.114,0.114,0.142,,0.0786,0.0991,0.0696,0.064,,,0.0936,0.0848,0.182,0.0893,,
I84Y,0.0639,0.058,,0.0513,,0.0513,0.0421,0.0575,0.0441,0.0565,0.0617,0.047,0.0482,0.0578,0.0567,,0.0512,,0.0542
I85E,0.0424,0.0501,,0.042,,0.065,0.031,,,,,0.0511,0.0347,,0.0494,,,0.0523,
I85N,0.0545,0.0656,0.0513,0.0484,0.0734,0.0612,0.0568,0.0424,,,0.0679,0.0507,,0.0493,0.0669,,,0.056,
I86H,0.0514,0.0282,,,0.0402,,0.0503,,0.042,0.0573,0.0482,0.0562,0.0309,,,,,,
R87E,0.114,0.099,0.09,,,,,0.103,0.0738,,,,0.115,,0.0932,,0.116,,0.12
R87L,0.1,0.0567,,,0.102,,0.0987,0.0854,,,0.052,0.081,,,,,,,
R87M,0.122,,,0.114,,,,,,0.139,,,,0.135,0.107,0.0928,,0.107,
P89D,0.127,0.0943,,,0.0794,,,0.0967,0.0814,,,,,,,,,,0.138
P89G,0.102,0.101,,,,,,,0.101,0.0563,,,0.077,0.117,0.0729,,,,
K90T,0.122,0.099,0.12,0.142,,,0.121,0.106,0.105,0.117,0.0873,0.0825,0.104,0.135,,0.119,0.127,,0.111
D91G,0.11,0.116,,0.099,0.0827,,0.112,0.1,0.0862,,,0.122,0.101,0,0.107,,0.107,0.119,0.208
D91Y,0.135,0.0836,,0.0921,,0.0981,0.101,0.0846,0.0912,0.088,,0.0677,,0.093,0.0949,,0.0954,,0.098
F92W,0.119,0.0829,0.126,,,0.131,0.132,0.107,0.118,,,0.1,,,,,0.112,,
P93E,0.143,0.112,,0.194,,0.144,,0.132,0.124,0.146,0.049,,,,,,0.125,0.112,0.147
P93G,0.119,0.0971,,0.0871,,0.131,,0.0966,0.0907,,,,0.0981,,0.097,,,0.119,
